In the supplement of paper PMC4967469 one finds AUC and IC50 data, which are given here for 20 cell lines.

The IC50 comes from the fitted curve, where viability falls to half of the control; a limit (>, <) means that the fit lies beyond the doses tested. AUC, from the same fit, is the share of area under the viability curve across the 256-fold dose range; values near 1 show little effect. Any top dose called inferred was calculated from the reported fits.

Compound in the first assay: O=C1NC(=O)c2c1c(-c1ccccc1Cl)cc1[nH]c3ccc(O)cc3c21 [Wee1 inhibitor 681640]
Kind of assay: Viability of human cancer cell lines after 72 h of drug (GDSC screen). To be noted: top dose 2 µM; top dose inferred. Here is the method:
(§1)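 Human cancer cell lines in 384-well plates, medium with 10% serum, drug for 72 h over a 256-fold dose range (nine 2-fold or five 4-fold steps up to the top dose). Adherent lines were fixed and stained with the nucleic acid dye Syto60, suspension lines read with resazurin; signal relative to control wells, capped at 0 and 100%. One two-parameter sigmoid per drug and line, fitted in a mixed model over all curves with the slope shared within a line.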
As for A498 (kidney, adherent), the AUC was 0.962 and the IC50 – broadly, the concentration at which inhibition is half-maximal – is more than 2 µM.

As for “ALL-PO (lymphoblastic leukaemia, suspension)”, the AUC was 0.822 and the IC50 is 1.26 µM.

Consider “AMO-1 (haematopoietic neoplasm, suspension)”, for which the AUC turned out to be 0.991 and the IC50 is more than 2 µM.

Take “ATN-1 (T-cell lymphoblastic leukaemia, suspension)”: the AUC came out at 0.729 and the IC50 was determined as 0.533 µM.

On to “BE-13 (lymphoblastic leukaemia, suspension)”, for which the AUC stood at 0.935 and the IC50 was more than 2 µM.

On to BL-41 (Burkitt lymphoma, suspension), for which the AUC turned out to be 0.975 and the IC50 was more than 2 µM.

Turning to BT-474 (breast, adherent), the AUC was 0.982 and the IC50 was more than 2 µM.

Turning to Becker (glioma, adherent), the AUC amounted to 0.935 and the IC50 was more than 2 µM.

For the cell line CAS-1 (glioma, adherent), the AUC is 0.946 and the IC50 was more than 2 µM.

As for CGTH-W-1 (thyroid, adherent), the AUC is 0.982 and the concentration for half-maximal inhibition (IC50) is more than 2 µM.

Turning to “COLO-668 (small cell lung carcinoma, adherent)”, the AUC is 0.931 and the IC50 was more than 2 µM.

Consider COLO-684 (endometrium, suspension), for which the AUC worked out at 0.97 and the IC50 was more than 2 µM.

For COLO-800 (melanoma, adherent), the AUC is 0.956 and the IC50 was more than 2 µM.

For the cell line “COR-L95 (small cell lung carcinoma, adherent)”, the AUC amounted to 0.987 and the IC50 is more than 2 µM.

As to CW-2 (large intestine, adherent), the AUC was 0.985 and the IC50 is more than 2 µM.

For the cell line D-247MG (glioma, adherent), the AUC turned out to be 0.959 and the IC50 was more than 2 µM.

Compound in the next assay: Cc1cccc(-c2[nH]c(C(C)(C)C)nc2-c2ccc3nccnc3c2)n1 [SB-525334]
Described as above. Conditions: top dose 20 µM; top dose inferred. Here is the method:
as §1
8-MG-BA (glioma, adherent): the AUC was 0.964 and the IC50 is more than 20 µM.

For A101D (melanoma, adherent), the AUC is 0.936 and the IC50 was more than 20 µM.

A253 (head and neck, adherent): the AUC stood at 0.986 and the IC50 is more than 20 µM.

A388 (skin, adherent): the AUC amounted to 0.972 and the IC50 is more than 20 µM.

As for A498 (kidney, adherent), the AUC amounted to 0.978 and the IC50 was more than 20 µM.

For “ALL-PO (lymphoblastic leukaemia, suspension)”, the AUC came to 0.939 and the IC50 was more than 20 µM.

As for “AMO-1 (haematopoietic neoplasm, suspension)”, the AUC was 0.971 and the IC50 is more than 20 µM.

Regarding “ATN-1 (T-cell lymphoblastic leukaemia, suspension)”, the AUC came out at 0.98 and the IC50 was more than 20 µM.

As to “BE-13 (lymphoblastic leukaemia, suspension)”, the AUC was 0.964 and the IC50 is more than 20 µM.

Consider BL-41 (Burkitt lymphoma, suspension), for which the AUC stood at 0.911 and the IC50 is 16.4 µM.

BT-474 (breast, adherent): the AUC is 0.815 and the IC50 was 12.6 µM.

Take Becker (glioma, adherent): the AUC was 0.956 and the IC50 is more than 20 µM.

As for CAS-1 (glioma, adherent), the AUC turned out to be 0.98 and the IC50 was more than 20 µM.

As to CGTH-W-1 (thyroid, adherent), the AUC amounted to 0.984 and the IC50 is more than 20 µM.

Consider “COLO-668 (small cell lung carcinoma, adherent)”, for which the AUC was 0.858 and the IC50 was determined as 16.4 µM.

Consider COLO-684 (endometrium, suspension), for which the AUC was found to be 0.778 and the IC50 stood at 9.12 µM.

Take COLO-800 (melanoma, adherent): the AUC turned out to be 0.952 and the IC50 is more than 20 µM.

Take “COR-L95 (small cell lung carcinoma, adherent)”: the AUC stood at 0.894 and the IC50 was more than 20 µM.

As for CW-2 (large intestine, adherent), the AUC was determined as 0.969 and the IC50 is more than 20 µM.

Consider D-247MG (glioma, adherent), for which the AUC was found to be 0.98 and the IC50 was more than 20 µM.

Compound in another assay: COc1cc(N2CCN(C)CC2)ccc1Nc1ncc2c(n1)N(C)c1ccccc1C(=O)N2C [XMD8-85]
Described as above. To be noted: top dose 8 µM; top dose inferred. Here is the method: as §1
In the case of 8-MG-BA (glioma, adherent), the AUC worked out at 0.902 and the IC50 is more than 8 µM.

With A101D (melanoma, adherent), the AUC stood at 0.846 and the IC50 stood at 7.94 µM.

For the cell line A253 (head and neck, adherent), the AUC came out at 0.949 and the IC50 was more than 8 µM.

Regarding A388 (skin, adherent), the AUC amounted to 0.824 and the IC50 is 5.73 µM.

A498 (kidney, adherent): the AUC worked out at 0.81 and the half-maximal inhibitory concentration (IC50) came out at 7.15 µM.

With “ALL-PO (lymphoblastic leukaemia, suspension)”, the AUC was 0.809 and the IC50 stood at 4.48 µM.

For “AMO-1 (haematopoietic neoplasm, suspension)”, the AUC is 0.924 and the IC50 is more than 8 µM.

In the case of “ATN-1 (T-cell lymphoblastic leukaemia, suspension)”, the AUC was 0.919 and the IC50 was more than 8 µM.

For “BE-13 (lymphoblastic leukaemia, suspension)”, the AUC came out at 0.959 and the IC50 is more than 8 µM.

With BL-41 (Burkitt lymphoma, suspension), the AUC was found to be 0.839 and the IC50 worked out at 3.71 µM.

Consider BT-474 (breast, adherent), for which the AUC was found to be 0.974 and the IC50 was more than 8 µM.

On to Becker (glioma, adherent), for which the AUC stood at 0.817 and the IC50 was found to be 5.18 µM.

CAS-1 (glioma, adherent): the AUC is 0.876 and the IC50 is more than 8 µM.

As to CGTH-W-1 (thyroid, adherent), the AUC was determined as 0.867 and the IC50 was 7.12 µM.

In the case of “COLO-668 (small cell lung carcinoma, adherent)”, the AUC was 0.919 and the IC50 was more than 8 µM.

In the case of COLO-684 (endometrium, suspension), the AUC amounted to 0.915 and the IC50 is more than 8 µM.

On to COLO-800 (melanoma, adherent), for which the AUC was determined as 0.905 and the IC50 is more than 8 µM.

Turning to “COR-L95 (small cell lung carcinoma, adherent)”, the AUC came to 0.954 and the IC50 was more than 8 µM.

Regarding CW-2 (large intestine, adherent), the AUC was found to be 0.988 and the IC50 is more than 8 µM.

D-247MG (glioma, adherent): the AUC was determined as 0.646 and the IC50 turned out to be 1.48 µM.

Compound in another assay: COc1cc(-c2nn([C@H]3CC[C@H](N4CCN(C(C)=O)CC4)CC3)c3ncnc(N)c23)ccc1NC(=O)c1cc2ccccc2n1C [A-770041]
The assay is described as above. Conditions: top dose 5.12 µM; top dose inferred. Here is the method: as §1
As for 8-MG-BA (glioma, adherent), the AUC was found to be 0.83 and the IC50 came to 2.95 µM.

In the case of A101D (melanoma, adherent), the AUC is 0.773 and the IC50 was determined as 2.47 µM.

With A253 (head and neck, adherent), the AUC amounted to 0.97 and the IC50 is more than 5.12 µM.

For the cell line A388 (skin, adherent), the AUC amounted to 0.792 and the IC50 came out at 2.7 µM.

As for A498 (kidney, adherent), the AUC came out at 0.97 and the IC50 is more than 5.12 µM.

As to “ALL-PO (lymphoblastic leukaemia, suspension)”, the AUC came to 0.908 and the IC50 is more than 5.12 µM.

In the case of “AMO-1 (haematopoietic neoplasm, suspension)”, the AUC came out at 0.986 and the IC50 was more than 5.12 µM.

Consider “ATN-1 (T-cell lymphoblastic leukaemia, suspension)”, for which the AUC turned out to be 0.972 and the IC50 is more than 5.12 µM.

With “BE-13 (lymphoblastic leukaemia, suspension)”, the AUC worked out at 0.869 and the IC50 came out at 4.23 µM.
